± gives the standard deviation of the averaged measurements. The list shows a part of the results.
test system: PfAP2-LT AP2 domain (GST-tagged); experiment: gcPBM binding intensity (ln(normalized median fluorescence intensity)); higher = stronger DNA binding
How it was run: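 In this array assay, P. falciparum DNA-binding domains with a GST tag, expressed in E. coli, were applied for 1 h to primer-extended double-stranded 36-bp intergenic genomic probes and negative controls on an Agilent 4 × 180k array. Bound protein was visualised with Alexa488 anti-GST antibody at 488 nm. Binding intensity is the highest Masliner-normalised natural-log median intensity across replicate spots of either probe orientation.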

Point of comparison: “ATAATGTTCCTATGATGTACTTATAATTATCATTTT [XGTACX_site4017]”, “gcPBM binding intensity (ln)” value 8.86 ± 0.45. Against it:
- ATTTTTTATATTTAGTGTACATGTTTTAATTTATAA [XGTACX_site7512] — within error, 8.76 ± 0.43
- ATAACTTTATTCAGTTTGCACTTTTATAACAAAAGA — within error, 8.6 ± 0.43
- CTTATATAATTCGATAGTACATATTTTTATATATAT [XGTACX_site4045] — within error, 8.64 ± 0.51
- TAAACATACCTATACACACACACACGCACACGCACA [CACACA_site6372] — higher, 10.22 ± 0.042
- GTTCCAGGCATTCGTGCGCACAAATAGAAACAATTA [GTGCAC_site9824] — within error, 9.06 ± 0.56
- TAAAAATTGCACAGAAGTACAGTATAAATATATATA [XGTACX_site3421] — within error, 8.74 ± 0.44
- TTTCTATATTGGCATACATGCAAGAACGAAAAGATT [TGCATGCA_site117] — within error, 8.64 ± 0.37
- ATAATATATGAGCAATGTACATATTTCTCATTGCAC [XGTACX_site2253] — within error, 8.89 ± 0.42
- CATTCAATTGAAAAATGTACAAAAATAAACATATGC [XGTACX_site1663] — within error, 8.99 ± 0.44
- TAAGTATACGCATACACACACACACCCAAAAAAAAA [CACACA_site425] — higher, 9.91 ± 0.21
- AATAGGAAGACTATTTTGTATTTGATTTTTTATTCC [GTGCAC_negctrl_site453] — the same, 8.86 ± 0.49
- TCTTTTTTTTTTTTTTTTTTTTTTTATTTATTCATA [CACACA_negctrl_site1827] — within error, 8.48 ± 0.58
- AAAAGGTATCCACATACGCACACCAAAAAAAAAAAT [CACACA_site347] — within error, 9.16 ± 0.64
- ATACAACAATGTGAATTATATATGGATGGAGAATGA [GTGCAC_negctrl_site148] — within error, 8.98 ± 0.54
- ACGTAAGCGAATAAAAGTACATATATTAAAAAAAAA [XGTACX_site4458] — within error, 8.76 ± 0.65
- TTCTTAAGGAACGAACGTACAGAATAAAAAGTAAAA [XGTACX_site4294] — within error, 8.66 ± 0.59
- GTTGAACATATATGCACACACATAAAATAAAAAAAA [CACACA_site2413] — within error, 9.42 ± 0.44
- TTGTGAAACATCAAGAAAAAGAAATAATAAAAAGAA [GTGCAC_negctrl_site38] — within error, 8.64 ± 0.63
- TTATATTAATATATATGTACATATATTTTTTTTATA [XGTACX_site6981] — within error, 8.61 ± 0.61
- ATATATATGTTTTATAGTACACACATAAATGGACAT [XGTACX_site4538] — within error, 9.06 ± 0.3
- CTATTATTTTTAAATTGTACTATAACAAAATGTATA [XGTACX_site3916] — within error, 8.47 ± 0.36
- TTTATATTTATATAAATATAATATATATGAATTATA [XGTACX_negctrl_site466] — within error, 8.12 ± 0.4
- AAATAAATCTATAATACACACAAAAATATAAAATGC [CACACA_site7700] — within error, 9.21 ± 0.39
- CTTCAATATATTCTTACACACTTAAAAAAAAAAATA [CACACA_site4287] — within error, 8.49 ± 0.4
- TTAGATATGTGTAAGGGTACAAAATACTTTACATTT [XGTACX_site8204] — within error, 8.71 ± 0.48
- TTAAGAAATAACAATGCACACATTTAGGTCTTTTAT [CACACA_site3285] — within error, 8.88 ± 0.43
- ATAACTTGTATATATACACACACACCCTTTCTTTTT [CACACA_site8600] — higher, 9.79 ± 0.47
- TATATTATATTATACATACACACCCATATAATATGT [CACACA_site869] — within error, 9.15 ± 0.41
- ATTTAAAAAAAAATGGCACACATTTTAATTTTATGT [CACACA_site1740] — within error, 8.76 ± 0.46
- TTTTTGTTTCGTTACGCATGCCAAAAGTAAAAATAT [TGCATGCA_site536] — within error, 8.61 ± 0.4
- TTGTGTCATATATTTTGTAATCAAAATAATTTTATT [TGCATGCA_negctrl_site307] — within error, 8.45 ± 0.5
- TTTTTAATGATCAGACGTACAGTTATGAAGAAATTT [XGTACX_site6394] — within error, 8.53 ± 0.38
- GTAATGTCGTCGTTTTGTACATATTTTTATAAAAAG [XGTACX_site2688] — within error, 8.77 ± 0.36
- TATTATAAATTAATTTTAAACTTTATTATTATGATA [GTGCAC_negctrl_site389] — within error, 8.15 ± 0.49
- TATTAGTCGAATGATGTACACACATACAAAACATTT [CACACA_site9331] — within error, 9.12 ± 0.38
- AAAGGAGACAGAATAAGAATAAATATTATACATATA [XGTACX_negctrl_site412] — within error, 8.71 ± 0.62
- AAAAAAAAAAAGAACTCACACATAATAATGTATATG [CACACA_site4974] — within error, 8.64 ± 0.47
- TTAAAATTATATCTGTGTACATAAATTGTGTAACTA [XGTACX_site1966] — within error, 8.62 ± 0.38
- TGGGAAAACCCCAGAAGTACGCTTAATATAAAAAAT [XGTACX_site697] — within error, 8.72 ± 0.51
- ATTAAAATAATATAAACACACATATACTTTTTTCTA [CACACA_site565] — within error, 8.63 ± 0.45
- TATTGTTCGTTTAAGGTGCTATTGTTTGCAAAATAT [GTGCAC_site9412] — within error, 8.83 ± 0.33
- AAGAGGTTATTACATTCACATAACATCAATATACGT [GTGCAC_negctrl_site264] — within error, 8.88 ± 0.45
- TAGCGTACATTTCATTGTAATCATAAAAAATAAAGA [CACACA_negctrl_site447] — within error, 8.54 ± 0.51
- TTAAAACATATTTTGAATTAATATATTTTAATATTA [XGTACX_negctrl_site148] — within error, 8.05 ± 0.5
- ATTCATATGTGACACACACACACACGCATAAAAAAA [CACACA_site7515] — higher, 10 ± 0.29
- ACAAAAATATATATATGTACATATATCATCATAATA [XGTACX_site5850] — within error, 8.83 ± 0.45
- TTTATTAGAACCGTACGTACATAGTTATTTTTTCAA [XGTACX_site8848] — within error, 8.67 ± 0.38
- GTTTGTATAGGTTCATGTACAAAAAAAAAAAAAAAA [XGTACX_site537] — within error, 8.49 ± 0.49
- TTTAAAACCCTAAAAAAAAAAAAAAAAAAAAAAAAA [CACACA_negctrl_site1212] — within error, 8.25 ± 0.28
- ATGCATAAAAGAAATACACACATAAATATGTAAATA [CACACA_site7087] — within error, 9.38 ± 0.38
- AGGTATATATTACAAGTGCACTGTAAAATTAAAATT — within error, 8.93 ± 0.43
- TAATAAACAAATTCCAAAATAAATTAAAAGGAAAAT [CACACA_negctrl_site1404] — within error, 8.68 ± 0.49
- TTTTATCTCATTCATCAAAATCACCGGAATCATATA [CACACA_negctrl_site357] — within error, 8.42 ± 0.37
- ATTTTATCATAATAAAGTACAAAGATGCAAATAATA [XGTACX_site2270] — within error, 8.8 ± 0.43
- ATTTATTTATATTTAGTGCAATACTATTTTTAAATA [GTGCAC_site9886] — within error, 8.54 ± 0.43
